The assay deals with T1, human topoisomerase II (Homo sapiens, UniProt P11388).
T1 construct: purchased Topogen Inc., Port Orange, USA TG1001
The assay is described as follows: Inhibition of topoisomerases activity in vitro, Topogen protocol TG1001 (Table 7). The format is biochemical.

T1 sequence (P11388 whole entry): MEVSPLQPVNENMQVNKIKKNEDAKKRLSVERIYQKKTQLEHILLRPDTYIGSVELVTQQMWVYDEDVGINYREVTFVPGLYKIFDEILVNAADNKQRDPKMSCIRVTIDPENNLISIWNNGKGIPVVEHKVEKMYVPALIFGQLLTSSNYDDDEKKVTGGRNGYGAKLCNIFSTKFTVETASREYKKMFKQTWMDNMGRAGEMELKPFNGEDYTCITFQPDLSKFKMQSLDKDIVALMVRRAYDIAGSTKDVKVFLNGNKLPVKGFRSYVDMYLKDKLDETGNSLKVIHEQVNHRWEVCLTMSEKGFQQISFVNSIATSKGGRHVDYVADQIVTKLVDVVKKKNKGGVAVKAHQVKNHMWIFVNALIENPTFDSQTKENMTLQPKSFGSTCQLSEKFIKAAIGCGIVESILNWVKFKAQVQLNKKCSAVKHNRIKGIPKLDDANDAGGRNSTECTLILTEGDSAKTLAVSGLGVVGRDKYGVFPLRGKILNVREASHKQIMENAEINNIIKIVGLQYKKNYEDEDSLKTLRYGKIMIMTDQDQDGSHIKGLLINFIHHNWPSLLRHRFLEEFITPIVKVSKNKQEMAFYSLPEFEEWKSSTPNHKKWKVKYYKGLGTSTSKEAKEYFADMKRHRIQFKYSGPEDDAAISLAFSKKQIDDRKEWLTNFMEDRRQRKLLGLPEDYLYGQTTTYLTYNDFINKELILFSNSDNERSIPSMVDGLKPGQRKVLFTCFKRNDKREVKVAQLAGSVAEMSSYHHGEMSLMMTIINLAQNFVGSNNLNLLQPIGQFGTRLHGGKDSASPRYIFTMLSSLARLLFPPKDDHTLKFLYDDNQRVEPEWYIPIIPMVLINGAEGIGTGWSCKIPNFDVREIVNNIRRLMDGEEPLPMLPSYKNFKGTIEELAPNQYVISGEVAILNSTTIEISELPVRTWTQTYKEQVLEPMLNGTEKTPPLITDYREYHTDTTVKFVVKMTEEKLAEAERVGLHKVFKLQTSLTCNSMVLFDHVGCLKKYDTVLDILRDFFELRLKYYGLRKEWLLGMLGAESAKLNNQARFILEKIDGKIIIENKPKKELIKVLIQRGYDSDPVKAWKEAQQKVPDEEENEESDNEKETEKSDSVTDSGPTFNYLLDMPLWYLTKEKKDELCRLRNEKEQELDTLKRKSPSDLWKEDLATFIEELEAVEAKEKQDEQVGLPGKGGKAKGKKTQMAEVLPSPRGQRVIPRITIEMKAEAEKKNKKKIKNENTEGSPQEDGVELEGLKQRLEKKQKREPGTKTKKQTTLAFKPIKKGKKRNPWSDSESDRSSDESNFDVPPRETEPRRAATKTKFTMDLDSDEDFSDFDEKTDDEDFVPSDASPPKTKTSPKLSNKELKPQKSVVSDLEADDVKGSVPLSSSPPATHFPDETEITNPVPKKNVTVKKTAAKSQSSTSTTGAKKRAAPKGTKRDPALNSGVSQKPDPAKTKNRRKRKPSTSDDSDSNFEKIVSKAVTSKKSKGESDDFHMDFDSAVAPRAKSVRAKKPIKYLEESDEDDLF

Broadly, the IC50 is the concentration that gives 50% inhibition. The low end stands for higher potency, the high end for lower potency. `Cc1c(-c2ccc3[nH]ncc3c2)ccn2c(=O)c(C(=O)[O-])cc(C3CC3)c12.[K+]` [Example 23 K salt, potassium 1-cyclopropyl-8-(1H-indazol-5-yl)-9-methyl-4-oxo-4H-quinolizine-3-carboxylate]: the 50% inhibitory concentration (IC50) is over 35 µM.

`Cc1c(-c2cc(F)c(N)cc2F)ccn2c(=O)c(C(=O)[O-])cc(C3CC3)c12.[K+]` [Example 28 K salt, potassium 8-(4-amino-2,5-difluoro-phenyl)-1-cyclopropyl-9-methyl-4-oxo-4H-quinolizine-3-carboxylate] registered a half-maximal inhibitory concentration (IC50) of 68 µM.

The record behind these values is patent US8962842B2, “2-pyridone antimicrobial compositions” (priority 2010, dated 2015).
